This is one part of the list. At the low end of the ranking the order means little.

The target of this test is T1, GST-Rok-C97-191 (UniProt O34857).
T1 sequence: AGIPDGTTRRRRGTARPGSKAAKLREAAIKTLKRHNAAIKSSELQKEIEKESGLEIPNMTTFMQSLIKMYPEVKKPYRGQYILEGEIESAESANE
The test can be described thus: protein binding microarray.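 Further: rank score from −0.5 (least bound) to 0.5 (best bound).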 The following applies: Rok is a gene silencer of Bacillus subtilis; high values mean tight binding; most listed sequences are background and not binding sites; double strand, one strand shown.
For TACGTCGA, the binding signal is 0.125 E-score.
The same measure for CACATCAA: 0.0141 E-score.
The sequence AGCTAAGG gave a binding signal of -0.143 E-score.
GTTCTCAA: the binding signal was 0.064 E-score.
The same measure for ACGTGGGA: -0.0432 E-score.
For GAATCCGA the value was -0.0545 E-score.
AACAGATC returned a binding signal of -0.115 E-score.
Sequence ATGTTATA registered a binding signal of 0.281 E-score.
On to ATAATGGG, for which the binding signal is 0.106 E-score.
For AGGTCACT the value was -0.0299 E-score; for TACCACTA, 0.263 E-score; for ATAGAAAT, 0.381 E-score.
The same measure for CGAGTCTC: -0.219 E-score; for ACCACGGA: -0.033 E-score.
For ACCGCTAA the value was 0.13 E-score.
The sequence GAGCATAA showed a binding signal of 0.129 E-score.
For GTTACTCA, the binding signal is 0.0639 E-score.
The same measure for GGATATCC: -0.17 E-score; for CTAACTCC: -0.00723 E-score.
For AGAACAAA the value was -0.0217 E-score; for CAGGTGTA, 0.0479 E-score; for AAGTTGTA, 0.199 E-score.
For AGAACTGG the value was -0.0864 E-score; for CGGATCAG, -0.032 E-score; for CGATGTAG, 0.176 E-score.
The sequence ACCCATGG had a binding signal of -0.065 E-score.
For the sequence CCCACGCG, the binding signal stood at 0.0254 E-score.
GCATCATA yielded a binding signal of 0.171 E-score.
For ACGAACGT the value was -0.196 E-score; for GCGATGAA, -0.0177 E-score.
The sequence ATCCATAC returned a binding signal of 0.00279 E-score.
ATGAAGCG gave a binding signal of -0.113 E-score.
For CATTTTAG the value was 0.164 E-score; for GTCTGGCA, -0.154 E-score; for ATTGGTCC, -0.221 E-score.
Sequence TCGAAAAA returned a binding signal of -0.0734 E-score.
In turn, ATCCCAAG came in with a binding signal of -0.118 E-score.
CAGTAGCA came in with a binding signal of 0.163 E-score.
The same measure for AATACACC: 0.105 E-score; for AATGGCCG: -0.1 E-score; for ATATTGGA: 0.116 E-score.
GAATACCA gave a binding signal of 0.0312 E-score.
The same measure for AGGGTTAG: -0.232 E-score; for AAGAGACT: 0.0451 E-score.
ATCATTGC: the binding signal came to 0.096 E-score.
AACTGTTC displayed a binding signal of -0.0552 E-score.
For TACTCGAA the value was 0.156 E-score.
For the sequence TCGGACCA, the binding signal is -0.135 E-score.
In turn, GGAAGATA displayed a binding signal of 0.182 E-score.
For ACTACCTA the value was 0.308 E-score; for AGAGTCCA, -0.0763 E-score; for AACTGCCA, -0.275 E-score.
TATAGGGA: the binding signal was 0.0451 E-score.
As for ATCTACTC, the binding signal was determined as 0.206 E-score.
The same measure for ACTAGCAC: 0.0173 E-score; for CGCTGACA: -0.0139 E-score.
ATTCACAA displayed a binding signal of 0.135 E-score.
The same measure for ATCCAGAA: 0.0754 E-score; for ATAACTGC: 0.128 E-score.
The same measure for AAAAAGAT: 0.131 E-score; for AATGCCTG: 0.0203 E-score.
The sequence CACTGAGG displayed a binding signal of -0.173 E-score.
For TACGCCCA the value was -0.0847 E-score.
Sequence ATGGTAGC returned a binding signal of 0.35 E-score.
The same measure for CGCTGCAC: -0.24 E-score; for AGGCGGAC: -0.278 E-score.
The same measure for AAACTTAC: 0.274 E-score; for CTGAGAGC: -0.268 E-score; for ACGCCTAA: -0.184 E-score.
For TAAAGGCA the value was -0.0495 E-score; for TAAGTGCA, 0.0583 E-score; for ACATGTCT, -0.129 E-score.
Sequence ATACTCCG had a binding signal of 0.124 E-score.
In turn, CAACGTGA gave a binding signal of -0.0575 E-score.
For CCGGAGTC the value was -0.211 E-score; for ATGACAGC, -0.0772 E-score; for ACTAAGTG, 0.05 E-score.
The same measure for CGGTGACC: -0.242 E-score; for ACGGTTCA: -0.0205 E-score; for CCTCGAGC: -0.0582 E-score.
The same measure for ACGCCTTA: 0.073 E-score.
CCCGGCCG had a binding signal of -0.206 E-score.
In turn, ATGTGCCG gave a binding signal of 0.0314 E-score.
In turn, GGCGAAAC came in with a binding signal of -0.154 E-score.
For GGGCTACC the value was -0.272 E-score.
The same measure for ACCTGCGC: -0.103 E-score.
For CTGTCTTC the value was -0.115 E-score; for AGTCCAAC, -0.123 E-score.
Turning to TACACGTA, the binding signal is 0.0591 E-score.
For ATACTGCA the value was 0.287 E-score; for GCCATATA, 0.0533 E-score; for ATACACAG, 0.211 E-score.
The same measure for AGAGGAGG: -0.227 E-score; for AAAATCAG: 0.0662 E-score; for GGTACCCA: -0.204 E-score.
The sequence AAAGAATA gave a binding signal of 0.135 E-score.
Turning to TACCCTGA, the binding signal is -0.162 E-score.
The same measure for AATACAAT: 0.259 E-score; for CGGTCGTA: 0.261 E-score; for CGACTCAA: -0.0209 E-score.
The same measure for ATGCTTTG: -0.0485 E-score.
The same measure for GGCATACC: 0.00482 E-score; for CATGACTC: 0.0199 E-score.
Regarding GGATTAAC, the binding signal is -0.0794 E-score.
For ATTCGGAG, the binding signal worked out at 0.177 E-score.
The same measure for CAATATGC: 0.0338 E-score; for CATCGCGC: -0.104 E-score; for ATCCGCAC: -0.158 E-score.
Take AAATTAAG: the binding signal amounted to 0.244 E-score.
In turn, GTGGCGAA displayed a binding signal of -0.104 E-score.
The sequence TACTGCGA registered a binding signal of -0.0669 E-score.
For TTATGCAA the value was 0.0744 E-score; for CGCGGTAC, -0.0926 E-score.
As for TGAGAAAA, the binding signal came to 0.154 E-score.
With AAGAAAGC, the binding signal was found to be 0.0446 E-score.
Sequence GATATCAC returned a binding signal of 0.102 E-score.
For CCTTCGTC, the binding signal was -0.258 E-score.
The same measure for CGAGATCG: 0.00764 E-score; for ACGGGGAC: -0.292 E-score; for AGCTGCAC: -0.0784 E-score.
GCTATAAC showed a binding signal of 0.0846 E-score.
With GAGGTAAC, the binding signal was 0.0147 E-score.
For CGACAGAA the value was -0.0126 E-score; for TCCGGAAA, -0.188 E-score; for AACCCCTA, -0.0905 E-score.
The same measure for CTACAGAC: 0.11 E-score; for TGAGTAAA: 0.0735 E-score; for CTCTTCTC: -0.191 E-score.
The same measure for ATTTCATG: 0.0719 E-score.
Sequence CTTTGGGC displayed a binding signal of -0.314 E-score.
In turn, GCATCGAA showed a binding signal of 0.0226 E-score.
For GATTACTA the value was 0.354 E-score; for ACAGGGCC, -0.268 E-score.
Turning to AAGATGAA, the binding signal is -0.000246 E-score.
AGAGAGAG came in with a binding signal of -0.164 E-score.
On to CCGTCCAC, for which the binding signal was -0.0522 E-score.
Turning to ATGACCAG, the binding signal is -0.103 E-score.
GTATTCCA: the binding signal was determined as 0.0684 E-score.
For CGAATATA the value was 0.245 E-score; for CCCGATAA, 0.12 E-score; for GATGAGGA, -0.207 E-score.
The same measure for ATAGGCTC: -0.202 E-score; for AACCTCAA: -0.0809 E-score.
Consider ACAGAGTC, for which the binding signal was -0.142 E-score.
For ACCGGACA the value was -0.0656 E-score.
As for GAAGCCCC, the binding signal was -0.224 E-score.
Turning to GCTGCAGC, the binding signal is -0.158 E-score.
Sequence ACCTGGGG had a binding signal of -0.392 E-score.
For CTTGTTAC the value was 0.0583 E-score; for ACCCTTTA, 0.000281 E-score.
Regarding CCCGGACA, the binding signal was -0.0586 E-score.
Regarding AAGGTGTC, the binding signal is -0.264 E-score.
The same measure for CCGGGGGA: -0.0847 E-score; for ATGATGGG: -0.0998 E-score.
For AGAACAGC, the binding signal stood at 0.0208 E-score.
The same measure for AATAGGGG: -0.179 E-score; for ATCCGCTC: -0.164 E-score; for CACTCTCG: -0.0178 E-score.
Consider AGGGAGGG, for which the binding signal was -0.231 E-score.
In the case of ATATGCTC, the binding signal was -0.0124 E-score.
Sequence CGATCAAA returned a binding signal of 0.085 E-score.
The same measure for AAGCTCGC: -0.201 E-score.
Take GCAAACAC: the binding signal is -0.0826 E-score.
For the sequence CAAATACG, the binding signal was 0.127 E-score.
The sequence ACAACCGG registered a binding signal of -0.0576 E-score.
For ACTCGATC the value was 0.1 E-score; for AGAACATA, 0.13 E-score.
For GCGAAGCA the value was -0.238 E-score; for CACGTAGG, -0.15 E-score.
The same measure for AACCGAGG: -0.246 E-score; for AACCAAAT: 0.153 E-score; for AATGTAGA: 0.359 E-score.

The values above are taken from paper PMC6212790.
